Laboratory results reported in ChEMBL document CHEMBL4888484, “Replenishing the malaria drug discovery pipeline: Screening and hit evaluation of the MMV Hit Generation Library 1 (HGL1) against asexual blood stage Plasmodium falciparum ,using a nano luciferase reporter read-out” (2022).
About 540 (0.36%) of roughly 150,000 compounds showed an effect of 50% or more. The list shows a part of the results.

Each molecule was assayed on Plasmodium falciparum (assay: Primary screen in NF54 nanoGlo assay, in single point, at 2uM, 72h; a lower Z score goes with more inhibition). Details: timepoint 72 hour.
Assay type: functional, Erythrocyte
`CN(Cc1ccco1)C(=O)NCC1(c2ccccc2)CC1` was tested, and the “% Inhibition” value was 2% and the Z score was -0.16. For `Cc1ccc(NC(=O)N2CC(Cn3cncn3)C2)cc1C`, the “% Inhibition” value was -14% and the Z score was 1.77. For `Cc1cc(C(=O)N2CC[C@H]3C(=O)N(CC(C)C)CC(=O)N3CC2)no1`, the “% Inhibition” value was -3% and the Z score was 0.57. With `OCCc1ccccc1-n1ccnc1-c1cccc2nonc12` the “% Inhibition” value was -5% and the Z score was 0.74. With `CN(C)c1noc(CNC(=O)N2CCC[C@H](c3nc4c(s3)CCCC4)C2)n1` the “% Inhibition” value was -12% and the Z score was 1.42. In the case of `O=C(N1CCCC1)N1c2ccccc2CCc2ccccc21`, the “% Inhibition” value is reported as -7% and the Z score is reported as 1.32. For `CO[C@@H](C)C(=O)Nc1cc(F)ccc1C(C)=O`, the “% Inhibition” value was 29% and the Z score was -3.26. With `COc1c(C)cc([C@H]2CCc3nc(C(=O)NC4CCN(Cc5ccccc5)CC4)cn3C2)cc1C` the “% Inhibition” value was 8% and the Z score was -1.4. With `CN(C)c1ccccc1N(C)C[C@H]1CCOC1` the “% Inhibition” value was -7% and the Z score was 0.67. For `CCN(C(=O)N1CCC(OC)(OC)[C@@H](O)C1)C(C)C`, the “% Inhibition” value was 3% and the Z score was -0.47. For `CCOC(=O)[C@@H](c1cc(Cl)cc(Cl)c1)N(CC)C(=O)CN(C)S(C)(=O)=O`, the “% Inhibition” value was 6% and the Z score was -0.92. In the case of `Cc1nc(-c2ccccc2)sc1C(C)NC(=O)CC(C)C1CCNCC1` (configuration not stated), the “% Inhibition” value is reported as -10% and the Z score is reported as 1.03. `CC[C@@H](CO)N1CCN(C(=O)Nc2cccc3ccn(C)c23)CC1` was tested, and the “% Inhibition” value was 4% and the Z score was -0.69. For `Cc1cc(NC(=O)NCCN2CCC(O)CC2)cnc1C(F)(F)F`, the “% Inhibition” value was -1% and the Z score was 0.21. In the case of `Cc1csc(C(=O)N[C@@H](CC(C)C)C(=O)O)c1`, the “% Inhibition” value is reported as -12% and the Z score is reported as 2.21. With `CCN(C(=O)[C@H]1CCCN(S(=O)(=O)c2ccc3c(c2)NC(=O)CO3)C1)c1ccc(OC)cc1` the “% Inhibition” value was -4% and the Z score was 0.61. `O=C(Cn1c(=O)[nH]c2c(-c3ccc(F)cc3)c[nH]c2c1=O)N1CCN(Cc2ccccc2)CC1` was tested, and the “% Inhibition” value was -12% and the Z score was 1.87. For `COc1cccc2c1OC[C@@H](C(=O)NCCS(=O)(=O)N1CCCC1)C2`, the “% Inhibition” value was -4% and the Z score was 0.54. For `Cc1ccc(F)c(N2CCC(NC(=O)c3cscn3)CC2)c1`, the “% Inhibition” value was -8% and the Z score was 0.91. For `COC(C)(C(=O)O)C(=O)NC1CCCC1c1ccccc1C(F)(F)F` (configuration not stated), the “% Inhibition” value was -11% and the Z score was 1.49. In the case of `COc1ccc(-c2ccc(=O)n([C@@H](C)C(=O)Nc3cc(C)no3)n2)cc1`, the “% Inhibition” value is reported as 27% and the Z score is reported as -3.55. With `COc1ccc([C@H](C(=O)O)N2CCC(c3nc4ccccc4o3)CC2)cc1F` the “% Inhibition” value was -14% and the Z score was 2.64. For `CCc1nc2c(c(O[C@H]3CCCN(S(=O)(=O)Cc4ccccc4)C3)n1)CCOCC2`, the “% Inhibition” value was -13% and the Z score was 2.01. For `CC(C)S(=O)(=O)CC(=O)Nc1cc(C(F)(F)F)c(F)cc1O`, the “% Inhibition” value was -7% and the Z score was 0.83. `C=C(C)CN1CCCC[C@@H]1Cn1nc(C)nc1C` was tested, and the “% Inhibition” value was -3% and the Z score was 0.53. `C=CCn1cnc2c1c(=O)n(C1CC1)c(=O)n2-c1cccc(Cl)c1` was tested, and the “% Inhibition” value was 5% and the Z score was -0.61. `O=C(Nc1ccc2c(c1)C(=O)N1CCC[C@H]1C(O)=N2)c1c(Cl)cccc1Cl` was tested, and the “% Inhibition” value was -1% and the Z score was 0.14. In the case of `Nc1ncc(Cl)cc1S(=O)(=O)N1CC(=O)N(CC(F)(F)F)C1`, the “% Inhibition” value is reported as -8% and the Z score is reported as 1.5. For `CC(C)CCC1=NC2(CCN([C@@H](C)CN3CCCCCC3)CC2)C(=O)N1`, the “% Inhibition” value was -13% and the Z score was 1.59. With `CC(C)(C)c1ccc(C(=O)N2CCC[C@H]2c2nc(-c3ccccc3Cl)no2)cc1` the “% Inhibition” value was -14% and the Z score was 1.58. `COc1cccc(CNC(=O)Cn2c3ccccc3c3cn[nH]c(=O)c32)c1` was tested, and the “% Inhibition” value was -6% and the Z score was 1.08. In the case of `CN(C)C1(CN[C@H]2CCc3ccc(OC(F)(F)F)cc32)CCOCC1`, the “% Inhibition” value is reported as -3% and the Z score is reported as 0.42. With `COC(=O)c1cc(C)nc(N2CCN(C3CCCCC3)CC2)n1` the “% Inhibition” value was 2% and the Z score was -0.37. For `COc1cnc(NC(=O)N[C@H]2CCS(=O)(=O)C(C)(C)C2)s1`, the “% Inhibition” value was -15% and the Z score was 2.92. `CO[C@@H](C)c1noc(CN(C)S(=O)(=O)c2c(C)noc2C)n1` was tested, and the “% Inhibition” value was 4% and the Z score was -0.64. With `O=C(Nc1ccon1)C(=O)NC1CCCCC1` the “% Inhibition” value was -12% and the Z score was 1.8. With `O=C(NCC(=O)N1CCCS1(=O)=O)OCc1ccccc1` the “% Inhibition” value was -17% and the Z score was 2.73. `O=S(=O)(c1cccc2cccnc12)N1CC[C@H](n2cc(-c3ccccc3)nn2)C1` was tested, and the “% Inhibition” value was -12% and the Z score was 1.6. With `CCN(CC)C(=O)[C@@H]1C[C@@H](NC(=O)c2ccno2)CN1C(=O)C1CCCC1` the “% Inhibition” value was -12% and the Z score was 1.64. With `CC[C@H](C)NC(=O)c1csc(CN(CCC(c2ccccc2)c2ccccc2)Cc2ccc(Cl)cc2)n1` the “% Inhibition” value was -12% and the Z score was 1.35. `COc1ccc(NC(=O)N2CCC[C@H](Cn3c(C4CC4)nc4cccnc43)C2)c(C)c1` was tested, and the “% Inhibition” value was -12% and the Z score was 1.73. With `CCc1ccc(CNC(=O)c2ccc(-c3noc(-c4ccc(C)cc4)n3)s2)cc1` the “% Inhibition” value was -18% and the Z score was 2.43. `CCCCc1nn(CC(=O)N2CCC[C@H]2C(F)(F)F)c(=O)n1CC` was tested, and the “% Inhibition” value was 5% and the Z score was -0.63. For `Cc1c(CN2CC[C@@](O)(CN3CCCCC3)C2)oc2ccccc12`, the “% Inhibition” value was -9% and the Z score was 1.23. `CC(=O)c1cn(C(C)(C)CO)c(=O)[nH]c1=O` was tested, and the “% Inhibition” value was -23% and the Z score was 2.66. For `Cc1ccc(-c2nc(N)n(C(=O)CCc3ccccc3)n2)cc1C`, the “% Inhibition” value was -10% and the Z score was 1.62. `O=C(Nc1ccc(C(=O)N2CCCCC2)cc1)Nc1cnsn1` was tested, and the “% Inhibition” value was -36% and the Z score was 4.23. In the case of `Cn1nc(CCNc2ncnc(N)c2Cl)c2ccccc21`, the “% Inhibition” value is reported as 8% and the Z score is reported as -1.12. In the case of `N#Cc1ccccc1CN1CCC(CCC(=O)NCc2ccc(F)cc2)CC1`, the “% Inhibition” value is reported as -8% and the Z score is reported as 1.26. With `CC(C)N(C(=O)COC(=O)c1ccc(S(=O)(=O)N2CCCCC2)cc1)c1ccccc1` the “% Inhibition” value was -13% and the Z score was 2.56. For `O=S(=O)(NCc1noc(C2CCCC2)n1)c1ccc(-c2cc(C(F)(F)F)[nH]n2)o1`, the “% Inhibition” value was -13% and the Z score was 1.75. `Cc1nc(COc2cccc(C(=O)N3CCc4ccc(F)cc43)c2)no1` was tested, and the “% Inhibition” value was -1% and the Z score was 0.14. `Cc1cccc(C(=O)Nc2sc3c(c2C(=O)N2CCOCC2)CCCCC3)c1` was tested, and the “% Inhibition” value was -22% and the Z score was 2.35. With `COc1ccc(C(=O)Nc2nccnc2C(=O)N2CCC(Cc3ccccc3)CC2)cc1` the “% Inhibition” value was -10% and the Z score was 1.45. `Cn1cc([C@H]2CN(C(=O)CCc3nncn3C)C[C@H]2CC(=O)O)nn1` was tested, and the “% Inhibition” value was -1% and the Z score was 0.1. In the case of `c1ccc2c(c1)OC[C@@H](c1n[nH]c3c1CN(Cc1nccs1)CC3)O2`, the “% Inhibition” value is reported as -3% and the Z score is reported as 0.51. `O=C1C[C@@H](C(F)(F)F)C2(CCOCC2)CN1` was tested, and the “% Inhibition” value was -1% and the Z score was 0.22. In the case of `CCOC(=O)C1CCC(O)(Cn2cnc3cc(F)c(F)cc32)CC1` (configuration not stated), the “% Inhibition” value is reported as -13% and the Z score is reported as 1.14. `Clc1ccc([C@H](c2nnnn2C(c2ccccc2)c2ccccc2)N(Cc2ccccc2)Cc2ccccc2)c(Cl)c1` was tested, and the “% Inhibition” value was 2% and the Z score was -0.2. For `C=CCC(CC=C)C(=O)NCCNc1ccccc1`, the “% Inhibition” value was -1% and the Z score was 0.23. In the case of `CC(C)OCCOC[C@@H](O)CN(C)CCC(=O)Nc1ccccc1`, the “% Inhibition” value is reported as -11% and the Z score is reported as 1.12. In the case of `Cn1ccnc1CN1CCc2[nH]cnc2[C@H]1c1c(F)cccc1Cl`, the “% Inhibition” value is reported as -12% and the Z score is reported as 2.29. `O=C1C[C@H](c2noc(-c3n[nH]c4ccccc34)n2)CN1c1ccccc1` was tested, and the “% Inhibition” value was 1% and the Z score was -0.13. In the case of `C[C@H]1Cc2ccccc2N1C(=O)c1ccnc(OCC2CCOCC2)c1`, the “% Inhibition” value is reported as -22% and the Z score is reported as 4.12. In the case of `CC(=O)Nc1nsc(N2CCC(C(=O)N3CCN(C4CCCCC4)CC3)CC2)n1`, the “% Inhibition” value is reported as -15% and the Z score is reported as 2.37. For `O=C(NCCc1ccccc1)N[C@H]1CCc2nn(CC3CC3)c(=O)n2CC1`, the “% Inhibition” value was -11% and the Z score was 1.65. For `O=C(Nc1ccnn1C[C@@H]1CC=CCC1)N1CCOc2ccc(CO)cc2C1`, the “% Inhibition” value was -12% and the Z score was 1.51. In the case of `Cc1cccc(-n2c(=O)n(C3CC3)c(=O)c3c2ncn3CCOc2ccccc2)c1`, the “% Inhibition” value is reported as 6% and the Z score is reported as -0.57. `CC(=O)Nc1ccc(OCC(=O)NCc2ccccc2F)nc1` was tested, and the “% Inhibition” value was -1% and the Z score was 0.21. In the case of `Cn1nc(C(F)(F)F)cc1S(=O)(=O)NCC[C@]1(O)CCCOC1`, the “% Inhibition” value is reported as -4% and the Z score is reported as 0.49. `Cc1nccc(Oc2ccc(-n3cccn3)cc2)n1` was tested, and the “% Inhibition” value was -7% and the Z score was 0.8. In the case of `Cc1cc(Cc2nc(CC(N)=O)nn2-c2ccc3nc(C)sc3c2)on1`, the “% Inhibition” value is reported as -8% and the Z score is reported as 0.97. In the case of `CN(Cc1cccnc1)C(=O)c1ccc2c(c1)OCO2`, the “% Inhibition” value is reported as 4% and the Z score is reported as -0.78. With `Cc1nc(C)c(CC(=O)Nc2ccc(N(C)C)nc2)c(=O)[nH]1` the “% Inhibition” value was 9% and the Z score was -1.18. For `CC(C)c1c(C(=O)N2CCN(C/C=C/c3ccccc3)CC2)cnn1-c1nccc(-c2ccco2)n1`, the “% Inhibition” value was -14% and the Z score was 1.77. With `Cn1c2c(c(=O)n(C)c1=O)/N=N\c1c(c(=O)n(C)c(=O)n1C)/N=N\2` the “% Inhibition” value was -8% and the Z score was 0.99. For `Cc1ccc2nccc(C(=O)N3CCC[C@H](CCC(=O)N4CCCC4)C3)c2c1`, the “% Inhibition” value was 11% and the Z score was -1.42. `Cc1c(-c2ccc(Cl)cc2)nnn1C[C@H](O)COCC(C)C` was tested, and the “% Inhibition” value was -1% and the Z score was 0.18. `Cc1nnc2c3ccc(Cl)cc3nc(N3CCN(S(=O)(=O)c4cccc(Cl)c4)[C@@H](C)C3)n12` was tested, and the “% Inhibition” value was -15% and the Z score was 1.79. `CCc1c(C(=O)N(CCO)Cc2ccc(C)o2)ccn1C` was tested, and the “% Inhibition” value was -1% and the Z score was 0.14. `CN1CCN([C@@H]2COC3(C2)CN(S(=O)(=O)c2ccccc2Cl)C3)CC1` was tested, and the “% Inhibition” value was -4% and the Z score was 0.63.
